From PubChem BioAssay (Tox21)
“And” between values parts separate entries of the source, which are not always exact repeats. Equal entries are not always repeated. The inconclusive results got no clear call from the source; some entries with a clear call stand among them for comparison. A potency beside an inconclusive call is a rough fit, not a confirmed value. The source made the active and inactive calls. Calls come from the whole dose curve; as a rule, active = well fitted curve in the direction sought with a large enough effect in the repeat runs; inconclusive = weak or mixed curves; inactive = no such curve, though single readings can be large; an effect the other way counts as inactive or inconclusive.
% is set by controls: 0 for no effect and ±100 for the full control effect; potency is the fitted concentration of half-maximal effect; tags give direction and shape of the fitted curve.

Experiment: qHTS RealTime-Glo MT Cell Viability Assay in HepG2 cells - 32 hour (AID 1224877); note: nearly all actives have a fitted effect of over 55% in size
Details: RealTime-Glo luminescence; series mostly up to 76.8 µM; activity change, negative = cytotoxic: at the top concentration
Outline: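 HepG2 cells (600/well) were dispensed with RealTime-Glo reagents, incubated 5 h at 37 °C, then treated with compounds in DMSO for up to 40 h. Nonlytic NanoLuc luminescence reflecting viable cells was read at each stated time point.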
With COC(=O)[C@H]1[C@H]2C[C@@H]3c4[nH]c5cc(OC)ccc5c4CCN3C[C@H]2C[C@@H](OC(=O)c2cc(OC)c(OC)c(OC)c2)[C@@H]1OC the Potency was inconclusive: 43.6 µM [cytotoxic, partial curve, poor fit] and inconclusive: 31.8 µM [cytotoxic, partial curve] and inconclusive: 23.9 µM [cytotoxic, partial curve, poor fit]. With O=[N+]([O-])c1ccc(O/N=C/c2cc(Br)c(O)c(Br)c2)c([N+](=O)[O-])c1 the Potency was inconclusive: 43.4 µM [cytotoxic, partial curve, poor fit]. With CCCCOC(=O)C(=O)OCCCC the “activity change, negative = cytotoxic” value was inactive: 3.31%. For CCC(=O)OCc1ccc(OC)cc1, the “activity change, negative = cytotoxic” value was inactive: 1.06%. For COC1CCC=CO1 (stereo not drawn), the “activity change, negative = cytotoxic” value was inactive: 0.173%. For CC(C)NCC(O)c1ccc(NS(C)(=O)=O)cc1 (stereo not drawn), the “activity change, negative = cytotoxic” value was inactive: -0.397%. For CCCCCCCCCI, the Potency was active: 35.3 µM. In the case of OC1CCCCCCCCCCC1, the Potency is reported as “inactive”. With C[Si](C)(CCCN)O[Si](C)(C)CCCN the “activity change, negative = cytotoxic” value was inactive: -2.82%. With O=C1CCCCC1C1CCCCC1 (stereo not drawn) the “activity change, negative = cytotoxic” value was inactive: -0.45%. For CCCCCCCCCCCCCCCC[N+](C)(C)CC, the Potency was active: 21.9 µM and active: 21.3 µM. For CCCCCOC(=O)CCCCC, the “activity change, negative = cytotoxic” value was inactive: 4.6%.

Experiment: A CellTox Green Cytotoxicity Assay to monitor cytotoxicity in HepG2 cells - 24 hour (AID 1224878); note: nearly all actives have a fitted effect of over 45% in size
Details: CellTox Green fluorescence; series mostly up to 76.8 µM; cytotoxicity: at the top concentration
Outline: (§1)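 Cytotoxicity was tracked as dead-cell DNA fluorescence in HepG2 cells treated with test compounds at 37 C; each time-point value comes from one kinetic series spanning 0, 8, 16, 24, 32 and 40 h.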
With COC(=O)[C@H]1[C@H]2C[C@@H]3c4[nH]c5cc(OC)ccc5c4CCN3C[C@H]2C[C@@H](OC(=O)c2cc(OC)c(OC)c(OC)c2)[C@@H]1OC the Potency was inconclusive: 40 µM [activator, partial curve, poor fit]. For C=CCON/C(CCC)=C1\C(=O)CC(C)(C)C(C(=O)OC)=C1O, the Potency was inconclusive: 60.9 µM [activator, single point]. For CCOC(=O)C1=C[C@]2(CC)CCCN3CCc4c(n1c1ccccc41)[C@@H]32, the Potency was inconclusive: 26.8 µM [activator, single point]. For O=C(O)c1ccc(C(=O)O)cc1, the Potency was inconclusive: 21.9 µM [activator, partial curve]. For CC(C)(O)c1coc(S(=O)(=O)NC(=O)Nc2c3c(cc4c2CCC4)CCC3)c1, the Potency was inconclusive: 49 µM [activator, single point]. With Nc1nnnn1-c1ccccc1 the Potency was inconclusive: 10.7 µM [activator, single point]. With Nc1nc(-c2ccccc2)c(Br)c(=O)[nH]1 the Potency was inconclusive: 0.0849 µM [activator, single point]. In the case of O=C1[C@@H]2[C@H]3CC[C@H](C3)[C@@H]2C(=O)N1CCCCN1CCN(c2ncccn2)CC1, the Potency is reported as inconclusive: 26.8 µM [activator, single point]. For Oc1cccc(O)c1, the Potency was inconclusive: 21.9 µM [activator, single point]. In the case of CCCCCCCCCI, the “cytotoxicity” value is reported as inactive: -9.76%. For N[C@@H](CSSC[C@H](N)C(=O)O)C(=O)O, the Potency was inconclusive: 0.107 µM [activator, single point]. With CC(=O)OCC=C(C)C the Potency was inconclusive: 40.5 µM [activator, single point]. In the case of Oc1ccccc1, the Potency is reported as inconclusive: 21.9 µM [activator, partial curve, poor fit]. For NS(=O)(=O)c1cc2c(cc1Cl)NC(CC1CCCC1)NS2(=O)=O (stereo not drawn), the Potency was inconclusive: 26.8 µM [activator, single point]. For CC(C)Nc1ccc(NC(C)C)c2c1C(=O)c1ccccc1C2=O, the Potency was inconclusive: 16.1 µM [activator, partial curve]. For CCCC(=O)OC(C)(C)Cc1ccccc1, the Potency was inconclusive: 54.9 µM [activator, partial curve, poor fit]. For CC(C)(C)C1(CCc2ccc(Cl)cc2)CO1 (stereo not drawn), the Potency was inconclusive: 54.9 µM [activator, single point].

Experiment: A CellTox Green Cytotoxicity Assay to monitor cytotoxicity in HepG2 cells - 40 hour (AID 1224879); note: nearly all actives have a fitted effect of over 40% in size
Details: CellTox Green fluorescence; series mostly up to 76.8 µM; cytotoxicity increase: at the top concentration
Outline: as §1
For C=CCON/C(CCC)=C1\C(=O)CC(C)(C)C(C(=O)OC)=C1O, the Potency was inconclusive: 54.3 µM [activator, single point]. In the case of CCOC(=O)C1=C[C@]2(CC)CCCN3CCc4c(n1c1ccccc41)[C@@H]32, the Potency is reported as inconclusive: 26.8 µM [activator, single point]. For CC(C)(O)c1coc(S(=O)(=O)NC(=O)Nc2c3c(cc4c2CCC4)CCC3)c1, the Potency was inconclusive: 54.9 µM [activator, single point]. With Nc1nnnn1-c1ccccc1 the Potency was inconclusive: 10.7 µM [activator, single point]. In the case of O=C1[C@@H]2[C@H]3CC[C@H](C3)[C@@H]2C(=O)N1CCCCN1CCN(c2ncccn2)CC1, the Potency is reported as inconclusive: 26.8 µM [activator, single point]. For Oc1cccc(O)c1, the Potency was “inactive and inconclusive: 21.9 µM [activator, single point]”. For OC1CCCCCCCCCCC1, the Potency was active: 49.5 µM and inconclusive: 43.6 µM [activator, partial curve, poor fit]. With C[Si]1(C)O[Si](C)(C)O[Si](C)(C)O1 the “cytotoxicity increase” value was inactive: -7.19%. With CC(=O)OCC=C(C)C the Potency was inconclusive: 40.5 µM [activator, single point]. In the case of Oc1ccccc1, the Potency is reported as inconclusive: 21.9 µM [activator, single point]. For O=NN(CCCl)C(=O)NCCCl, the Potency was inconclusive: 5.35 µM [activator, full curve, poor fit]. With NS(=O)(=O)c1cc2c(cc1Cl)NC(CC1CCCC1)NS2(=O)=O (stereo not drawn) the “cytotoxicity increase” value was inactive: 25.5% [at 35.3 µM]. With CCCC(=O)OC(C)(C)Cc1ccccc1 the Potency was inconclusive: 43.6 µM [activator, partial curve]. With CC(C)(C)C1(CCc2ccc(Cl)cc2)CO1 (stereo not drawn) the Potency was inconclusive: 61.6 µM [activator, single point].
